Structures are written as SMILES. This is one part of the list. Most values come without repeats; read them as rough.
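Note: cell number obtained by counting DAPI-stained nuclei in high-throughput microscope images with image analysis software, screen run in 1,536-well plates.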

The first assay has as its system A101D. The experiment in a line: cell count relative to DMSO control; melanoma cells; higher = more viable cells. The conditions noted are these: library dose: low library concentration; 72 h.
Molecule `Cc1nc(Nc2ncc(C(=O)Nc3c(C)cccc3Cl)s2)cc(N2CCN(CCO)CC2)n1` [dasatanib] + Oc1nc(-c2ccc(C(F)(F)F)cc2)nc2c1CSCC2 [XAV939] (first compound 0.004 µM, partner dose 2 µM) yielded a cell count of 80.1%.
As to `OCCn1cc(-c2cnc3nnn(Cc4ccc5ncccc5c4)c3n2)cn1` + O=C(O)C(=O)Nc1sc2c(c1C(=O)O)CCNC2 [TCS401] (first compound 1 µM, partner dose 1.66667 µM), the cell count amounted to 106%.
`C[C@]1(c2nc3c(C(N)=O)cccc3[nH]2)CCCN1` [Veliparib] + COc1ccc2c(c1)CCC1C2CCC2(C)C(NCCCCCCN3C(=O)C=CC3=O)CCC12 [U73122] (first compound 1.4 µM, partner dose 0.4 µM) showed a cell count of 82.1%.
For the molecule `NCC(=O)Nc1ccc(-n2nc(C(F)(F)F)cc2-c2ccc3c(ccc4ccccc43)c2)cc1` + O=C(Nc1ccccc1)c1cc([N+](=O)[O-])ccc1Cl [GW9662] (first compound 1 µM, partner dose 2 µM), the cell count came to 106%.
The molecule `OCCn1cc(-c2cnc3nnn(Cc4ccc5ncccc5c4)c3n2)cn1` + CN(NC(=O)CC(=O)NN(C)C(=S)c1ccccc1)C(=S)c1ccccc1 [STA4783] (first compound 1 µM, partner dose 0.006 µM) gave a cell count of 91.8%.
Still for that read-out and setting: the result for `C=CCn1c(=O)c2cnc(Nc3ccc(N4CCN(C)CC4)cc3)nc2n1-c1cccc(C(C)(C)O)n1` + O=C1NC(=O)/C(=C/c2ccc(-c3ccc(F)cc3O)o2)S1 [AS252424] (first compound 0.02 µM, partner dose 1 µM) reads 86.4%; that for `NC(=O)Nc1cc(-c2cccc(F)c2)sc1C(=O)N[C@H]1CCCNC1` + C[C@@H]1CCN(C(=O)CC#N)C[C@@H]1N(C)c1ncnc2[nH]ccc12 [CP690550] (first compound 0.02 µM, partner dose 1 µM), 92.7%; that for `Cc1nc(Nc2ncc(C(=O)Nc3c(C)cccc3Cl)s2)cc(N2CCN(CCO)CC2)n1` [dasatanib] + O=C1NC(=O)/C(=C/c2ccc(-c3ccc(F)cc3O)o2)S1 [AS252424] (first compound 0.004 µM, partner dose 1 µM), 100%.
The same measure, in the same setting: the result for `NCC(=O)Nc1ccc(-n2nc(C(F)(F)F)cc2-c2ccc3c(ccc4ccccc43)c2)cc1` + Oc1nc(-c2ccc(C(F)(F)F)cc2)nc2c1CSCC2 [XAV939] (first compound 1 µM, partner dose 2 µM) reads 96.2%.
For the molecule `NCC(=O)Nc1ccc(-n2nc(C(F)(F)F)cc2-c2ccc3c(ccc4ccccc43)c2)cc1` + COc1ccc(COc2ccc(Cc3cnc(N)nc3N)cc2OC)cc1 [GW2580] (first compound 1 µM, partner dose 1 µM), the cell count was 99.9%.
Still for that read-out and setting: to `NCC(=O)Nc1ccc(-n2nc(C(F)(F)F)cc2-c2ccc3c(ccc4ccccc43)c2)cc1` + Cc1cc([N+](=O)[O-])ccc1NS(=O)(=O)c1cc(Cl)ccc1Cl [FH535] (first compound 1 µM, partner dose 1 µM) belongs 95.6%.

The subject of the next assay is A2058. Described as above. Conditions: library dose: low library concentration; 72 h.
For `C[C@]1(c2nc3c(C(N)=O)cccc3[nH]2)CCCN1` [Veliparib] + Oc1cc(-c2nc(-c3ccccc3)[nH]c2-c2ccncc2)ccc1Cl [L779450] (first compound 1.4 µM, partner dose 0.2 µM), the cell count was 104%.
With `CN(C)S(=O)(=O)c1ccc2c(c1)/C(=C/c1cc3c([nH]1)CCCC3)C(=O)N2` + O=C(O)c1ccc(-c2c[nH]c3ncc(-c4ccccc4)cc23)cc1C1CCCC1 [GSK650394] (first compound 0.4 µM, partner dose 0.16 µM), the cell count was 105%.
In turn, `NC(=O)Nc1cc(-c2cccc(F)c2)sc1C(=O)N[C@H]1CCCNC1` + Cc1cc(N2CCOCC2)cc2[nH]c(-c3c(NC[C@@H](O)c4cccc(Cl)c4)cc[nH]c3=O)nc12 [BMS536924] (first compound 0.02 µM, partner dose 0.2 µM) displayed a cell count of 103%.
The molecule `C=CCn1c(=O)c2cnc(Nc3ccc(N4CCN(C)CC4)cc3)nc2n1-c1cccc(C(C)(C)O)n1` + CCN(CC)CCCCNc1ncc2cc(-c3cc(OC)cc(OC)c3)c(NC(=O)NC(C)(C)C)nc2n1 [PD173074] (first compound 0.02 µM, partner dose 0.1 µM) had a cell count of 112%.
For the molecule `Cc1nc(Nc2ncc(C(=O)Nc3c(C)cccc3Cl)s2)cc(N2CCN(CCO)CC2)n1` [dasatanib] + O=S(=O)(c1ccccc1)N(CC(F)(F)F)c1ccc(C(O)(C(F)(F)F)C(F)(F)F)cc1 [T0901317] (first compound 0.004 µM, partner dose 1.4 µM), the cell count is 82.5%.
The same measure, in the same setting: to `OCCn1cc(-c2cnc3nnn(Cc4ccc5ncccc5c4)c3n2)cn1` + Cn1cc(/C=C2\C(=O)Nc3cccnc32)c2ccccc21 [GW441756] (first compound 1 µM, partner dose 0.4 µM) belongs 123%; to `NC(=O)Nc1cc(-c2cccc(F)c2)sc1C(=O)N[C@H]1CCCNC1` + O=C(O)C(=O)Nc1sc2c(c1C(=O)O)CCNC2 [TCS401] (first compound 0.02 µM, partner dose 1.66667 µM), 97.7%; to `OCCn1cc(-c2cnc3nnn(Cc4ccc5ncccc5c4)c3n2)cn1` + CCCCCCCCCCCC1=C(O)C(=O)C=C(O)C1=O [Embelin] (first compound 1 µM, partner dose 1.2 µM), 101%.
As for `Cc1nc(Nc2ncc(C(=O)Nc3c(C)cccc3Cl)s2)cc(N2CCN(CCO)CC2)n1` [dasatanib] + COC(=O)c1sccc1S(=O)(=O)Nc1ccc(Nc2ccccc2)cc1OC [GSK0660] (first compound 0.004 µM, partner dose 1 µM), the cell count was 71.8%.
On to `C[C@]1(c2nc3c(C(N)=O)cccc3[nH]2)CCCN1` [Veliparib] + CCN(CC)CCCCNc1ncc2cc(-c3cc(OC)cc(OC)c3)c(NC(=O)NC(C)(C)C)nc2n1 [PD173074] (first compound 1.4 µM, partner dose 0.1 µM), for which the cell count was 110%.
Molecule `C=CCn1c(=O)c2cnc(Nc3ccc(N4CCN(C)CC4)cc3)nc2n1-c1cccc(C(C)(C)O)n1` + COC(=O)c1sccc1S(=O)(=O)Nc1ccc(Nc2ccccc2)cc1OC [GSK0660] (first compound 0.02 µM, partner dose 1 µM) had a cell count of 94.5%.
`NC(=O)Nc1cc(-c2cccc(F)c2)sc1C(=O)N[C@H]1CCCNC1` + O=C(Nc1ccccc1)c1cc([N+](=O)[O-])ccc1Cl [GW9662] (first compound 0.02 µM, partner dose 2 µM): the cell count was 93.7%.
In turn, `OCCn1cc(-c2cnc3nnn(Cc4ccc5ncccc5c4)c3n2)cn1` + Cn1cncc1[C@@](N)(c1ccc(Cl)cc1)c1ccc2c(c1)c(-c1cccc(Cl)c1)cc(=O)n2C [tipifarnib] (first compound 1 µM, partner dose 0.01 µM) registered a cell count of 73.4%.
As for `CN(C)S(=O)(=O)c1ccc2c(c1)/C(=C/c1cc3c([nH]1)CCCC3)C(=O)N2` + O=C(Nc1ccccc1)c1cc([N+](=O)[O-])ccc1Cl [GW9662] (first compound 0.4 µM, partner dose 2 µM), the cell count is 105%.
On the same count and under the same terms, to `CN(C)S(=O)(=O)c1ccc2c(c1)/C(=C/c1cc3c([nH]1)CCCC3)C(=O)N2` + CCc1ccc(CCOc2ccc(CC3SC(=O)NC3=O)cc2)nc1 [pioglitazone] (first compound 0.4 µM, partner dose 2 µM) belongs 105%.
Molecule `Cc1nc(Nc2ncc(C(=O)Nc3c(C)cccc3Cl)s2)cc(N2CCN(CCO)CC2)n1` [dasatanib] + Cc1cc([N+](=O)[O-])ccc1NS(=O)(=O)c1cc(Cl)ccc1Cl [FH535] (first compound 0.004 µM, partner dose 1 µM) gave a cell count of 76.8%.
The molecule `OCCn1cc(-c2cnc3nnn(Cc4ccc5ncccc5c4)c3n2)cn1` + CN(C)S(=O)(=O)c1ccc2c(c1)/C(=C/c1cc3c([nH]1)CCCC3)C(=O)N2 [SU6656] (first compound 1 µM, partner dose 0.4 µM) returned a cell count of 90.2%.
On to `CN(C)S(=O)(=O)c1ccc2c(c1)/C(=C/c1cc3c([nH]1)CCCC3)C(=O)N2` + COc1ccc2c(c1)CCC1C2CCC2(C)C(NCCCCCCN3C(=O)C=CC3=O)CCC12 [U73122] (first compound 0.4 µM, partner dose 0.4 µM), for which the cell count came out at 100%.
As to `CO[C@@H]1[C@H](N(C)C(=O)c2ccccc2)C[C@H]2O[C@]1(C)n1c3ccccc3c3c4c(c5c6ccccc6n2c5c31)C(=O)NC4` [Midostaurin] + Oc1nc(-c2ccc(C(F)(F)F)cc2)nc2c1CSCC2 [XAV939] (first compound 0.08 µM, partner dose 2 µM), the cell count was found to be 74.1%.
For the molecule `CO[C@@H]1[C@H](N(C)C(=O)c2ccccc2)C[C@H]2O[C@]1(C)n1c3ccccc3c3c4c(c5c6ccccc6n2c5c31)C(=O)NC4` [Midostaurin] + C[C@@H]1CCN(C(=O)CC#N)C[C@@H]1N(C)c1ncnc2[nH]ccc12 [CP690550] (first compound 0.08 µM, partner dose 1 µM), the cell count amounted to 75.4%.
Take `C[C@]1(c2nc3c(C(N)=O)cccc3[nH]2)CCCN1` [Veliparib] + CC(C)CCN1c2nc(Nc3cc(F)c(O)c(F)c3)ncc2N(C)C(=O)C1C [BID1870] (first compound 1.4 µM, partner dose 0.2 µM): the cell count is 112%.
Molecule `CO[C@@H]1[C@H](N(C)C(=O)c2ccccc2)C[C@H]2O[C@]1(C)n1c3ccccc3c3c4c(c5c6ccccc6n2c5c31)C(=O)NC4` [Midostaurin] + CC(C)(C)c1cnc(CSc2cnc(NC(=O)C3CCNCC3)s2)o1 [SNS-032] (first compound 0.08 µM, partner dose 0.01 µM) returned a cell count of 73.5%.

For the origin of these results see the supplement of paper PMC4604168 (melanoma cell lines).
